# Measurements: PubChem BioAssay AID686970 (National Center for Advancing Translational Sciences (NCATS), 2013)
# The campaign covered roughly 360,000 compounds. About 6,000 (1.7%) were called active. Inconclusive means that the source gave no clear call. Such entries were picked first, then a sample of the others. Calls follow the shape of the dose curve; as a rule, active = well fitted cell-killing curve with a large enough effect; inconclusive = small, poorly fitted or top-dose-only effect, or effect the other way; inactive = flat fitted curve, though single readings scatter. No potency is given beside an inconclusive call; the fits are too rough.
# Assay: qHTS for induction of synthetic lethality in tumor cells producing 2HG: qHTS for the HT-1080-NT fibrosarcoma cell line;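 also: NT is the 2HG producing partner of a matched IDH1 knockdown line; nearly all actives have a fitted effect of over 55% in size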;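 as to activity, negative = less viability: 0% = DMSO-treated cells and -100% = media-only wells without cells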
# Details: HT-1080-NT fibrosarcoma viability, CellTiter-Glo ATP luminescence, 48 h; activity, negative = less viability: at 46.1 µM (top of the series) unless noted
# Method in brief: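 HT-1080-NT; 750 cells/well; 5% FBS RPMI; 48 h compound, 37 degrees C; CellTiter-Glo luminescence; curve fitting and curve-class assignment.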
# Potency is read from the fitted curve at half-maximal effect; tags tell the direction and shape of the fitted curve.
SMILES,Potency,"activity, negative = less viability"
O=C(Nc1ccc(N2C(=O)CCC2=O)cc1Cl)c1cccs1,"inconclusive [rising, single point]",
Cc1[nH]c2ccccc2c1C(=O)C(=O)NCCc1c[nH]c2ccccc12,"inconclusive [cytotoxic, partial curve]",
CCN(CC)S(=O)(=O)c1ccc2oc(Nc3ccc(OC)cc3OC)nc2c1,"inconclusive [cytotoxic, single point]",
Cc1c(C(=O)N/N=C/c2cccs2)nnn1-c1nonc1N,inactive,
Cc1sc2nc(CN3CCCCC3)nc(N3CCN(C(=O)c4ccco4)CC3)c2c1C,"inconclusive [cytotoxic, partial curve]",
Cc1[nH]n(-c2ccccc2)c(=O)c1/C=N/N1C(=O)c2cccc3cccc(c23)C1=O,"inconclusive [cytotoxic, single point]",
CCOC(=O)C1=CCN(S(=O)(=O)c2ccc(F)cc2)C1c1ccc(Br)cc1 (stereo not given),"inconclusive [cytotoxic, single point]",
CCOC(=O)[C@]12CCCC=C1N(CCC1=CCCCC1)C(=O)[C@H](CC(=O)N1CCN(C(=O)C3CC3)CC1)C2,inactive,
CNS(=O)(=O)c1ccc(N2CCCC2)c([N+](=O)[O-])c1,inactive,
O=C(N/N=C/c1ccc(N2CCOCC2)cc1)c1ccccn1,"inconclusive [cytotoxic, partial curve]",
COC(=O)[C@]12CCCCC=C1N(Cc1ccc(Cl)cc1Cl)C(=O)[C@H](CC(=O)NCCC(C)C)C2,"inconclusive [cytotoxic, single point]",
Nc1ccccc1O,active: 20.6 µM,
COc1ccc(C(=O)NC2CCCc3ccccc32)cc1OC1CCN(C(C)=O)CC1 (stereo not given),inactive,
CC(=O)Nc1ccc(-c2ccnc3c2CC(C)(C(=O)Nc2cccc(Oc4ccccc4)c2)O3)cc1 (stereo not given),,inconclusive: -34.4%
O=C(CCC(=O)Nc1cc(C(F)(F)F)ccc1Cl)N/N=C\c1cc([N+](=O)[O-])ccc1O,"inconclusive [cytotoxic, single point]",
COc1ccc(-c2cnc(C(O)c3ccc(-c4ccccc4)cc3)[nH]2)cc1 (stereo not given),inactive,
COc1ccccc1C(=O)NCC(=O)NNC(=O)C1COc2ccccc2O1 (stereo not given),inactive,
CC(=O)N1c2ccc(S(=O)(=O)NCC3CCC(C(=O)Nc4ccc(C)cn4)CC3)cc2CC1C (stereo not given),"inconclusive [cytotoxic, single point]",
COc1ccc(/C=C(\C#N)c2c[nH]c3ccccc23)cc1,active: 0.411 µM,
COc1ccc(/C=C2\SC(=O)N(CCC(=O)Nc3ccccc3)C2=O)cc1OC,,inconclusive: -19.7% [cytotoxic]
COc1ccc(SCC(O)Cn2c3ccccc3c3ccccc32)c(OC)c1 (stereo not given),"inconclusive [cytotoxic, single point]",
CC(C)(C)c1ccc(OCCC(=O)NCC(c2cccs2)N2CCOCC2)cc1 (stereo not given),inactive,
C=CCNC(=O)c1ccccc1NC(=O)c1ccc(Cl)c(S(=O)(=O)Nc2cc(C)ccc2C)c1,"inconclusive [cytotoxic, single point]",
CCc1ccc(C(=O)COC(=O)c2cc([N+](=O)[O-])ccc2NCCO)cc1,"inconclusive [cytotoxic, partial curve]",

SMILES,Potency,"activity, negative = less viability"
CN1CSC2=C(C#N)C(c3cccc(OCc4ccccc4)c3)CC(=O)N2C1 (stereo not given),"inconclusive [cytotoxic, single point]",
CCOC(=O)c1sc(C)c2c1NC(c1ccc(N(C)C)cc1)NC2=O (stereo not given),inactive,
C[C@]12C=CC(=O)C=C1CC[C@@H]1C2[C@@H](O)C[C@@]2(C)C1CC[C@]2(O)C(=O)COC(=O)CCC(=O)O (stereo not given in full),"inconclusive [rising, full curve]",
CC(C)n1nc(C(=O)Nc2nc3ccc(S(C)(=O)=O)cc3s2)c2ccccc2c1=O,inactive,
COC(=O)C[C@H]1CC[C@H](NC(=O)c2cccc(F)c2)[C@@H](CO)O1,,inconclusive: 33%
COc1cc([N+](=O)[O-])cc(/C=N/N(CCC#N)C(C)=O)c1O,"inconclusive [cytotoxic, partial curve]",
O=C(C[C@@H]1C/C=C\C[C@H](NC(=O)OCC2c3ccccc3-c3ccccc32)C(=O)OC[C@@H]2CCCN2C1=O)N[C@H](CO)Cc1ccccc1,inactive,
CC[C@]12c3[nH]c4ccccc4c3CCN1C(=O)C(CC(=O)NCC13CC4CC(CC(C4)C1)C3)C[C@@H]2C(=O)N1CCN(C(=O)c2ccco2)CC1 (stereo not given in full),"inconclusive [cytotoxic, single point]",
O=C(c1cc2ccccc2o1)N1CCN(C/C=C/c2ccccc2)CC1,"inconclusive [cytotoxic, single point]",
CC1CC(=O)c2ccccc2C1C (stereo not given),inactive,
COc1cc(NC(=O)c2cc(OC)c(OC)c(OC)c2)c(OC)cc1NC(=O)CN1CCCCC1,inactive,
Cc1nn2c(COc3ccc(NC(=O)c4ccccc4Cl)cc3)nnc2c2ccccc12,"inconclusive [cytotoxic, single point]",
COCCCN(C(=O)c1ccco1)c1nc(-c2cc(OC)ccc2OC)cs1,"inconclusive [cytotoxic, single point]",
Cc1ccc(OCC(=O)Oc2c(C)cccc2C)cc1,inactive,
CCOc1ccc(/C=N/NC(=O)c2c(-c3ccccc3)noc2C)cc1,inactive,
CCS(=O)(=O)Nc1cccc(C2=NN(S(=O)(=O)c3ccc(C)cc3)C(c3ccco3)C2)c1 (stereo not given),inactive,
COc1ccc(S(=O)(=O)NCC(=O)N(CC(=O)NCc2ccco2)C2CCCC2)cc1,"inconclusive [rising, single point]",
Nc1ncnc2c1ncn2C1C=C(CO)C(O)C1O (stereo not given),"inconclusive [cytotoxic, partial curve]",
Nc1nonc1-n1nnc(C(=O)N/N=C/c2cc(Br)ccc2O)c1CSC1=NCCS1,"inconclusive [cytotoxic, full curve]",
O=C(NCCO)c1cccc2c1-c1ccccc1C2=O,"inconclusive [rising, partial curve, poor fit]",
Cc1ccc(/C=C2/SC(=S)N(CCC(=O)N3CCOCC3)C2=O)cc1,inactive,
CC(=NN1CC(=O)NC1=O)c1ccc([N+](=O)[O-])o1,"inconclusive [cytotoxic, single point]",
CC1=Nc2ccccc2/C1=C/c1c(C)[nH]c2ccccc12,"inconclusive [cytotoxic, single point]",
CCOc1ccccc1OCC(=O)Nc1ccc(N2CCCCC2)cc1,"inconclusive [cytotoxic, single point]",

SMILES,Potency,"activity, negative = less viability"
COc1ccc(NC(=O)/C(C#N)=C\C=C\c2ccco2)cc1,"inconclusive [cytotoxic, partial curve]",
O=C(CSc1ccccc1)N/N=C/c1ccccc1O,"inconclusive [cytotoxic, partial curve]",
Cc1ccc(N2CC(=O)N(c3ccc(C)cc3)CC2=O)cc1,"inconclusive [rising, single point]",
Cc1cccn2c(=O)c(C=O)c(Cl)nc12,"inconclusive [cytotoxic, single point]",
O=C(O)CC1(CC(=O)Nc2cc(C(F)(F)F)cc(C(F)(F)F)c2)CCCCC1,"inconclusive [cytotoxic, single point]",
CCS(=O)(=O)N1CCN(c2nc(-c3ccccc3)cs2)CC1,inactive,
CCOc1ccc(Nc2nc(NCC3CCCO3)c3ccccc3n2)cc1 (stereo not given),active: 18.4 µM,
COc1ccc(-c2ccc(CCC(=O)O)n2-c2cc(OC)ccc2OC)cc1,active: 23.1 µM,
COc1ccc(-c2cc(-c3ccc(OC)cc3)nc(-c3ccc4c(c3)NC(=O)CO4)c2)cc1,"inconclusive [cytotoxic, partial curve]",
CCOC(=O)Nc1nc2ccc(Cn3cccc3)cc2[nH]1,active: 3.26 µM,
Cc1cccc(N2CCN(C(C(=O)NCc3ccccc3)c3ccco3)CC2)c1C (stereo not given),"inconclusive [cytotoxic, single point]",
O=C(Nc1ccnn1C1CCN(C(=O)c2cc(Cl)ccc2F)CC1)C1CCOC1 (stereo not given),"inconclusive [rising, partial curve, poor fit]",
COc1ccc(/C=C2\SC(=S)N(CC(=O)NCCO)C2=O)cc1,"inconclusive [rising, single point]",
CCC1=Nc2cc(C(=O)NCc3ccco3)ccc2Sc2ccccc21,active: 2.59 µM,
Cc1noc2ncnc(Oc3cc(Cl)ccc3Cl)c12,"inconclusive [rising, partial curve]",
O=C1CC(c2ccc(Cl)cc2)Oc2ccc(Cl)cc21 (stereo not given),"inconclusive [cytotoxic, single point]",
O=C(NNc1ccccc1)c1ccccc1,"inconclusive [cytotoxic, full curve]",
O=C(CSc1ncnc2sc3c(c12)CCCCC3)NCc1ccco1,"inconclusive [cytotoxic, single point]",
O=C(Nc1ccc2c(c1)C(=O)NC2=O)c1cccc(Cl)c1,inactive,
COc1ccc(OC)c2sc(N(CCN(C)C)C(=O)/C=C/c3cccs3)nc12,active: 18.4 µM,
Cc1ccc(C(=O)NNC(=S)NC(=O)COc2ccccc2)cc1,"inconclusive [cytotoxic, single point]",
CCN(c1ccccc1)S(=O)(=O)c1cccc(C(=O)OCC(=O)c2c(N)n(C)c(=O)n(C)c2=O)c1,inactive,
